Measured values published in the supplement of paper PMC8183993.
Values joined by “and” are separate entries in the source; they are usually repeats but may differ in a detail not shown here. Equal entries are not always repeated. Structures can show the parent of a compound that is named as a salt. ± gives the standard deviation of the averaged measurements. Whole data set: some 3,100 compounds, median “mean cytoplasmic OPP incorporation (global translation) relative to DMSO” near 100, cut for the lowest 2% near 56. The list shows a part of the results.

test system: U2OS; assay: mean cytoplasmic OPP incorporation (global translation) relative to DMSO (% of DMSO); higher = more protein synthesis; settings: 10 µM; 24 h
Protocol: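 Primary image-based screen in U2OS cells: compounds at 10 uM for 24 h, then a 1 h o-propargyl-puromycin (OPP) pulse, click labelling, and high-throughput microscopy. Mean cytoplasmic OPP intensity and nuclei count were normalised to DMSO wells within each plate (DMSO = 100) and averaged over triplicate plates.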

SMILES	mean cytoplasmic OPP incorporation
Oc1nc(-c2ccc(C(F)(F)F)cc2)nc2c1CSCC2	103 and 101
NC(=O)N1c2ccccc2CC(=O)c2ccccc21 [Oxcarbazepine]	99.6
Cc1cc(C#N)cc(C)c1Oc1nc(Nc2ccc(C#N)cc2)nc(N)c1Br [Etravirine (TMC125)]	89.4
Cn1cncc1[C@@](N)(c1ccc(Cl)cc1)c1ccc2c(c1)c(-c1cccc(Cl)c1)cc(=O)n2C [Tipifarnib (Zarnestra)]	98.1
Cc1nnc(SCC2=C(C(=O)O)N3C(=O)[C@@H](NC(=O)Cn4cnnn4)[C@H]3SC2)s1 [Cefazolin sodium salt]	105
O=c1[nH]c(=O)n([C@H]2C[C@H](O)[C@@H](CO)O2)cc1C(F)(F)F [Trifluridine]	111
Cc1cc(F)c(Nc2ncnc3cc(OCc4ccccc4)ccc23)cc1O	104 and 96.3
COc1ccc2c3c1O[C@H]1C[C@@H](O)C=C[C@@]31CCN(C)C2 [Galanthamine hydrobromide]	102 ± 7.8
CC(C)n1cnc2c(NCCc3ccc(O)cc3)nc(-c3csc4ccccc34)nc21 [StemRegenin 1]	106
CC(C)NC(=N)NC(=N)Nc1ccc(Cl)cc1 [Proguanil hydrochloride]	97.3
Cc1nc2c(O)cccc2c(=O)[nH]1	100
CCNC(=O)c1cc2c(-c3cc(OCCN4CCCC4)c(Cl)cc3Cl)nc(N)nc2s1	95.3
c1cc(CN2CCCNCCNCCCNCC2)ccc1CN1CCCNCCNCCCNCC1 [Plerixafor 8HCl (AMD3100 8HCl)]	102
CCCCc1nc2ccn(Cc3cccs3)c(=O)c2n1Cc1ccc(-c2ccccc2-c2nn[nH]n2)cc1	104
CN(Cc1ccc(C(C)(C)C)cc1)Cc1cccc2ccccc12 [Butenafine Hydrochloride]	114
O=C(NCCCNc1nc(Nc2cccc(NC(=O)N3CCCC3)c2)ncc1I)c1cccs1	88.3 ± 4.3
N=C(CC(O)COc1ccccc1-c1ccccc1)N1CCCCC1 (stereo unspecified)	102
Cc1ccccc1C(=O)Nc1ccc(C(=O)N2CCCC(N(C)C)c3ccccc32)cc1 (stereo unspecified) [Mozavaptan]	96.6
CCCOc1ccc(Br)cc1-c1cc(-c2ccc(Cl)cc2)[nH]c1-c1ccncc1	100
C=C[C@@](C)(/C=C/c1ccc(O)cc1)CCC=C(C)C [Bakuchiol]	113
NS(=O)(=O)c1ccc(NC(=O)Nc2ccc(F)cc2)cc1	98.7

SMILES	mean cytoplasmic OPP incorporation
CC(=O)CC(c1ccc([N+](=O)[O-])cc1)c1c(O)c2ccccc2oc1=O (stereo unspecified) [Acenocoumarol]	96.8
CCCCCCCCNC(C)C(O)c1ccc(SC(C)C)cc1 (stereo unspecified) [Suloctidil]	103
S=c1[nH]cnc2nc[nH]c12 [Mercaptopurine]	75.8 ± 4.5
O=C(Nc1ccccc1)N[C@@H]1C[C@@H](C(=O)O)Nc2cc(Cl)cc(Cl)c21	105
Cc1ccc(Sc2ccccc2N2CCNCC2)c(C)c1	114
CN1CCC(CNc2ccc3ncc(-c4cccc(OC(F)(F)F)c4)n3n2)CC1 [SGI-1776 free base]	110 ± 2
NCC(=O)CCC(=O)O [5-Aminolevulinic acid HCl]	102
CC(C)[C@H](NS(=O)(=O)c1ccc(-c2ccc(Br)cc2)cc1)C(=O)O	98.7
CNCCC=C1c2ccccc2C=Cc2ccccc21 [Norcyclobenzaprine]	97.5
NC(=O)c1ccc[n+]([C@@H]2O[C@H](COP(=O)([O-])OP(=O)(O)OC[C@H]3O[C@@H](n4cnc5c(N)ncnc54)[C@H](O)[C@@H]3O)[C@@H](O)[C@H]2O)c1 [Nadide]	94.5
COc1cc2c(cc1OC)[C@@H]1Cc3ccc(OC)c(OC)c3CN1CC2 [Rotundine]	101
O=C(CCCN1CCC(O)(c2ccc(Cl)cc2)CC1)c1ccc(F)cc1 [Haloperidol hydrochloride]	103
O=C(CCCN1CCC(O)(c2ccc(Cl)cc2)CC1)c1ccc(F)cc1 [Haloperidol]	103
O=c1[nH]c2cc(Cl)ccc2c(O)c1-c1cccc(Oc2ccccc2)c1	103
Cc1ccc(C)c(OCCCC(C)(C)C(=O)O)c1 [Gemfibrozil]	98.8 ± 3.4
O=C(O)C[C@H](O)C[C@H](O)/C=C/c1c(C2CC2)nc2ccccc2c1-c1ccc(F)cc1 [Pitavastatin calcium (Livalo)]	111
C[C@H]1COC2(CCN(c3nc(=O)c4cc(C(F)(F)F)cc([N+](=O)[O-])c4s3)CC2)O1 (racemic) [BTZ043 racemate]	97.8
C[C@]12CCC(=O)C=C1C=C[C@@H]1[C@@H]2CC[C@@]2(C)[C@H]1CC[C@@]21CCC(=O)O1 [Canrenone]	116
CC1(C)[C@@H](O)CC[C@]2(C)[C@H]3C(=O)C=C4[C@@H]5C[C@@](C)(C(=O)O)CC[C@]5(C)CC[C@@]4(C)[C@]3(C)CC[C@@H]12 [Enoxolone (Glycyrrhetin)]	101
CC1(C)CC(=O)c2c(C(F)(F)F)nn(-c3ccc(C(N)=O)c(N[C@H]4CC[C@H](OC(=O)CN)CC4)c3)c2C1	104
COC(=O)CCc1ccc(OCC(O)CNC(C)C)cc1 (stereo unspecified) [Esmolol hydrochloride]	105

SMILES	mean cytoplasmic OPP incorporation
O=C(NCc1cccc(O)c1)Nc1nc(-c2ccncc2)cs1	102
COc1c(C)c2c(c(O)c1C/C=C(\C)CCC(=O)OCCN1CCOCC1)C(=O)OC2 [Mycophenolate mofetil (CellCept)]	69.4
CN1C(C(=O)Nc2ccccn2)=C(O)c2ccccc2S1(=O)=O [Piroxicam]	88.5 ± 19
COCCOC(=O)C1=C(C)NC(C)=C(C(=O)OC(C)C)C1c1cccc([N+](=O)[O-])c1 (stereo unspecified) [Nimodipine]	107 ± 2
CC1(C)S[C@@H]2[C@H](NC(=O)[C@H](N)c3ccccc3)C(=O)N2[C@H]1C(=O)OC1OC(=O)c2ccccc21 (stereo partly specified) [Talampicillin hydrochloride]	103
NC(=O)OCC(O)COc1ccc(Cl)cc1 (stereo unspecified) [Chlorphensin carbamate]	88.6
O=C(O)c1ccc(-n2nc(-c3ccccc3O)nc2-c2ccccc2O)cc1 [Deferasirox (Exjade)]	103
Clc1ccc(CCCOCCCN2CCCCC2)cc1	99
Nc1nc(=O)c2c([nH]1)NC[C@H](CNc1ccc(C(=O)N[C@@H](CCC(=O)O)C(=O)O)cc1)N2C=O [Calcium levofolinate (Calcium Folinate)]	101
COc1ccc(CCc2nc3cc(-c4c(C)noc4C)ccc3n2C[C@H](C)N2CCOCC2)cc1Cl	109
Cc1cnc(-c2cnc(NCCNc3ccc(C#N)cn3)nc2-c2ccc(Cl)cc2Cl)[nH]1	122
Cc1c(NC(C)C)c(=O)n(-c2ccccc2)n1C [Isopyrin hydrochloride]	98.9
NCCc1cc[nH]n1 [Betazole hydrochloride]	91.2
CCCNC(C)C(=O)Nc1c(C)csc1C(=O)OC (stereo unspecified) [Articaine hydrochloride]	114
COc1cc(N)c(Cl)cc1C(=O)CCC1CCN(CCNS(C)(=O)=O)CC1	104
CNCc1ccc(-c2[nH]c3cc(F)cc4c3c2CCNC4=O)cc1	103
CC(=O)C1=C(O)C=C2Oc3c(C(C)=O)c(O)c(C)c(O)c3C2(C)C1=O (single isomer, unassigned; (+)) [(+)-Usniacin (D-Usnic acid)]	95.8
CCNC(=O)c1noc(-c2cc(C(C)C)c(O)cc2O)c1-c1ccc(CN2CCOCC2)cc1	102
COc1cccc(N(C)C(=S)Oc2ccc3c(c2)CCCC3)n1 [Liranaftate]	103
C[C@H](NC[C@H](O)CP(=O)(O)Cc1ccccc1)c1ccc(Cl)c(Cl)c1	95.1
O=C1NC(=O)c2cc(Nc3ccc(F)cc3)c(Nc3ccc(F)cc3)cc21	107

SMILES	mean cytoplasmic OPP incorporation
Cc1cn([C@H]2C[C@H](N=[N+]=[N-])[C@@H](CO)O2)c(=O)[nH]c1=O [Zidovudine, AZT]	106
COc1ccc([C@@H]2Sc3ccccc3N(CCN(C)C)C(=O)[C@@H]2OC(C)=O)cc1 [Diltiazem hydrochloride]	103 ± 3.4
COc1ccc2c(c1)C(=O)N(CCc1ccc(S(=O)(=O)NC(=O)NC3CCCCC3)cc1)C(=O)C2(C)C [Gliquidone]	106
C=CCc1ccc(O)c(-c2cc(CC=C)ccc2O)c1 [Magnolol]	102
CN(C)CCN(Cc1ccc(Cl)cc1)c1ccccn1 [Chloropyramine hydrochloride]	106
CC(=N)NCc1cccc(CN)c1 [1400W dihydrochloride]	98.4
CC(C)c1cccc(=O)c(O)c1 [Hinokitiol]	96.3
NS(=O)(=O)Cc1noc2ccccc12 [Zonisamide]	103 ± 3.8
CC(C)C[C@H](NC(=O)N[C@H](C(=O)N[C@@H](CCC(N)=O)C(=O)N[C@@H](C)C=O)[C@@H]1CCNC(=N)N1)C(=O)O [Elastatinal]	98.9
CC(C[N+](C)(C)C)OC(N)=O (stereo unspecified) [Bethanechol chloride]	114
Cc1ccc2nc(NCCN)c3ncc(C)n3c2c1	56.1
Cc1c(NC(=O)OC[C@@H]2COCCN2)cn2ncnc(Nc3ccc4c(cnn4Cc4cccc(F)c4)c3)c12	110
NCCC(O)(P(=O)(O)O)P(=O)(O)O [Pamidronate Disodium]	93.2
CC(C)Oc1cc(Nc2nc(N[C@@H](C)c3ccc(F)cn3)ncc2Cl)n[nH]1	110
CC1=CC(=O)c2ccccc2C1=O [Menadione]	95.2
CC(=O)/N=c1/sc(S(N)(=O)=O)nn1C [Methazolamide]	106
N=C(N)N1CCc2ccccc2C1 [Debrisoquin sulfate]	100
Cc1ccc(C(=O)N(CCCN)[C@@H](c2nc3cc(Cl)ccc3c(=O)n2Cc2ccccc2)C(C)C)cc1	77.9
